# In all, about 33,000 sequences were measured (“E-score (-0.5 to 0.5)”: median about -0.032, highest 2% from about 0.36 on). This is one part of the list.
# Molecular target: T1, Sko1 (UniProt Q02100)
# T1 sequence: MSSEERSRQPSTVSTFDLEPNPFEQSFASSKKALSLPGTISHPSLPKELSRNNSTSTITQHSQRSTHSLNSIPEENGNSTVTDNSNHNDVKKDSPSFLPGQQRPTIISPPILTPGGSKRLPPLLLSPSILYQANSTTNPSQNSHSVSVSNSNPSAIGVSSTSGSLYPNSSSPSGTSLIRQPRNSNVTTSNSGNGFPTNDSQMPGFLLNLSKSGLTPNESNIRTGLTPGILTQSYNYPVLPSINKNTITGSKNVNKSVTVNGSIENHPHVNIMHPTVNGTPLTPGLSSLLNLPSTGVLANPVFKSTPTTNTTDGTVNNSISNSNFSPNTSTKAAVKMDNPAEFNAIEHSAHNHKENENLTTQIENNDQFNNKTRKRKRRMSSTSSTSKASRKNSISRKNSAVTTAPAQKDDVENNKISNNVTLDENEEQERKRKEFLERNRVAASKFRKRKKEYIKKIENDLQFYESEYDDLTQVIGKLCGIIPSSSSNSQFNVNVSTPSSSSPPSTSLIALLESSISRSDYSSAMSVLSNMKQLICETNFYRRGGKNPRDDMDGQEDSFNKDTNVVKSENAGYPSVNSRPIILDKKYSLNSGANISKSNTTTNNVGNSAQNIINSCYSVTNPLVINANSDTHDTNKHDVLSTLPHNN
# Test: PBM E-score (8-mer binding enrichment) (E-score (-0.5 to 0.5)); higher = stronger / more preferred TF binding; most listed sequences are background and not binding sites
# Settings: protein concentration: 200 nM; construct: GST-full length
# Outline: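 E-scores (a modified Wilcoxon-Mann-Whitney statistic) were assigned by the Universal PBM Analysis Suite to every ungapped eight-base word pooled with its reverse complement. The input came from universal all-10-mer Agilent arrays made double-stranded by primer extension and probed with GST-tagged yeast transcription factors at about 100-200 nM. Fluorescent anti-GST detected bound protein, and masliner normalised the scans.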
row,Sequence,PBM E-score
1,GCGCTGAC,0.154
2,CTAATTCC,0.176
3,AGGCGCAT,-0.158
4,AGTCACGG,-0.0356
5,CACACGCC,0.0149
6,CGCTTTGC,0.0148
7,GTCTTCTA,-0.0183
8,CAAGCGCG,-0.204
9,AGAAAGGG,-0.145
10,GGCTAATA,-0.0056
11,ACAAGCTG,-0.0759
12,CGAGATCC,-0.0847
13,AGGAGGTG,-0.273
14,ATCGAGAA,0.142
15,AAGCAGTA,-0.165
16,CACCTAAA,0.0921
17,CATGGTCA,0.194
18,GCGTAGCC,0.00349
19,CTGGCCGA,-0.247
20,GTACTGAA,0.156
21,ACAATGGC,0.076
22,CGGATCCC,-0.302
23,AGACTTGC,-0.0691
24,CTGGCAGC,-0.199
25,AGCATTTA,0.0954

row,Sequence,PBM E-score
1,ACGCGTCC,0.0182
2,GATTACCC,-0.0418
3,GATAGGCC,-0.247
4,CAAAATCG,0.0925
5,ACGTCCCG,0.0538
6,GACCCGAA,-0.25
7,CCTAAGGC,-0.153
8,GCGAGACA,-0.0515
9,CAATCATC,0.0821
10,AGTTCTGG,-0.0947
11,ACCATGCA,0.0137
12,CAATCATG,0.0604
13,GATTCGCA,0.0622
14,ACCGCCAT,-0.149
15,CTTCGCCA,-0.184
16,AAGCCCAC,-0.0501
17,CAATAATA,0.19
18,CCCAAACC,-0.118
19,CAGCCTTA,-0.213
20,AAGTGGAA,-0.17
21,CGAACCTC,-0.0957
22,ACTGGGCC,-0.238
23,AACGGTGC,0.0584
24,AGCACCGC,-0.258
25,AGCTGAAG,-0.192

row,Sequence,PBM E-score
1,TAGAAGCA,0.077
2,AGGTGTTG,0.0206
3,TCATTCAA,0.254
4,GTGTCGGA,-0.157
5,GGAGTGAA,-0.2
6,AACCATAA,0.113
7,ACCGCACC,-0.0449
8,GCAGTTTA,-0.07
9,CTGAGGGA,-0.253
10,GTACGCAA,0.399
11,CCCAAGTA,-0.226
12,CCCGGCAC,-0.232
13,AATCAAGG,-0.124
14,CTAGCAGA,-0.0607
15,GGGACCTA,-0.2
16,AGAGTCTA,-0.0237
17,CGCACACG,0.162
18,GTCAAGAA,0.169
19,ATTGTGAC,0.18
20,ATTTAAAA,0.123
21,CTGTCACA,-0.0326
22,AAAAATTA,0.201
23,GAAAGCCA,-0.0817
24,ATGCGTGC,0.202
25,GAATGTCC,-0.22

row,Sequence,PBM E-score
1,ATGAAGAC,0.144
2,AACTTTAA,0.194
3,TAGCTGGA,-0.189
4,AAGGATCA,-0.0728
5,ATAAGGCA,0.0644
6,GAGCGTGA,-0.175
7,CTCGTGGA,-0.0793
8,GGGAGCTA,-0.185
9,CGTACGCC,0.218
10,ATGAGTTG,0.043
11,ATGTAGAA,0.241
12,CAATCAAG,-0.106
13,CACAGTTA,0.0467
14,AAATCGCC,-0.178
15,CGAAAAGA,0.163
16,CGAATCGA,0.169
17,ACTAGGCG,0.0705
18,TGCAAACA,0.0209
19,GTTGTAGA,0.0228
20,ATCCCGCG,0.0257
21,CGTTGCTC,0.0339
22,CGTGTCTC,0.231
23,AAGCAGAT,-0.0347
24,ACGATACC,0.0977
25,TGCGATAA,0.0952

row,Sequence,PBM E-score
1,CGTACACA,0.239
2,ATGTCACC,0.268
3,CACTAACG,0.062
4,CCTTCCTC,-0.262
5,GACCTGCC,-0.225
6,CGGTAAAA,0.0446
7,GCGTGACC,0.0101
8,GAATATTC,0.149
9,AAGCCCAA,0.0326
10,CACAGAGA,0.0519
11,CAACCGGA,-0.149
12,CAATCTAG,0.00998
13,AACGTGGC,0.193
14,ACTCGGGA,-0.147
15,CGATCCGC,-0.0715
16,AGTATTAC,0.331
17,ACTGAAAT,0.0526
18,ATGATGTC,0.446
19,CCCTCAGG,-0.294
20,AGTTACTG,-0.0587
21,AGAAATGG,-0.183
22,CCTGGCTA,-0.048
23,CAGGAGTC,-0.0908
24,CACAAGGC,-0.105
25,TGAGCTCA,0.105

row,Sequence,PBM E-score
1,AGACTGGA,-0.112
2,AATGTCCG,-0.116
3,CATCAACA,0.152
4,CACATGTG,-0.00201
5,AAGCGAAC,0.136
6,ATACGACC,-0.00392
7,CGCGCTCA,0.0185
8,CTGGGCTA,-0.317
9,CTATTTCA,0.193
10,AAATCATA,0.204
11,CGCCAGGA,-0.12
12,ACGAGCAG,-0.0309
13,AGCGACGG,-0.0889
14,ACATTGGC,-0.0747
15,ACCGTCGT,0.0636
16,CATCTTCC,0.142
17,CACCGGAC,-0.113
18,GGGCGAAC,-0.15
19,CGGGCGAA,-0.207
20,GTCGGTTA,-0.00798
21,CGGAGAGA,-0.15
22,CAGGATGG,-0.189
23,AGGCGAAA,-0.191
24,TAGCGATA,0.168
25,AACCATGA,0.199

row,Sequence,PBM E-score
1,CAGGTTAC,0.0735
2,ATCCAACG,-0.0524
3,AATGCATT,0.149
4,AAGGAAAC,-0.1
5,ACCCAGTG,-0.0197
6,GACGGGAC,-0.175
7,GAATCCAA,-0.181
8,ACACACTA,0.108
9,ATGTCCGA,-0.185
10,AGTGGACC,-0.34
11,AATGGGGC,-0.276
12,CAGGGATG,-0.117
13,CTGTAACC,0.0382
14,CGATTTAA,0.1
15,CATTAAAC,0.128
16,GCTCTCCC,-0.367
17,AAAATATT,0.238
18,AAAGCATG,0.0731
19,CCGGGAAA,-0.14
20,ATTATGCA,0.176
21,GGGAGGGA,-0.0905
22,CATAAATC,0.11
